# In all, about 52,000 compounds went through this assay and about 1,700 (3.3%) were called active. No stated cut-off is given here; in the data, active means survival mostly below about 52% (no sharp cut-off); inactive means mostly above about 56%. The list shows a part of the results.
# Tested on: Wild type
# Experiment: S. aureus survival, RN4220 and DeltatarO strains – OD600, teichoic acid synthesis inhibitors, primary screen (AID 463173)
# Details: S. aureus RN4220 wild type/DeltatarO growth, OD600, 18 h, hits give low values, screened at 18.75 µg/mL (by protocol)
row,SMILES,survival
1,COc1ccc(S(=O)(=O)NCc2ccc3c(c2)CCN3C(=O)c2ccccc2)cc1OC,inactive: 75%
2,Cc1cc(Nc2ccccc2F)n2nc(-c3ccccc3)nc2n1,inactive: 84%
3,CCOc1ccc(Nc2oc(-c3ccc(COc4ccc(OC)cc4)o3)nc2C#N)cc1,inactive: 83%
4,CCOC(=O)C1CCN(c2cc3c(cc2NC(=O)c2ccc(Cl)cc2)n(C)c(=O)n3C)CC1,inactive: 88%
5,COc1ccc(NC(=O)CN2C(=O)CCn3nc(-c4cccn4C)cc32)cc1,inactive: 55%
6,Cc1cc(C)c(Nc2nc3ccccc3n3c(C)nnc23)c(C)c1,inactive: 99%
7,COc1ccccc1OCCn1c(NC(=O)c2ccccc2Cl)nc2ccccc21,active: -10%
8,Cc1ccc(NC(=O)C(=O)NCC(c2cccnc2)N2CCN(Cc3ccccc3)CC2)cc1C (centres undefined),inactive: 89%
9,O=C1CNC(=O)c2c(nc3n2CCC3)N1,inactive: 104%
10,CCN(CC)C(=O)Cn1c(=O)cc(C)c2c(C)nn(-c3cccc(Cl)c3C)c21,inactive: 85%
11,COc1cccc(CNC(=O)C2CCC(CNS(=O)(=O)c3ccc4c(c3)CCCC(=O)N4)CC2)c1 (centres undefined),inactive: 128%
12,Cc1ccc(NC(=O)CSc2nnc3scc(-c4ccc(Cl)cc4)n23)cc1,inactive: 72%
13,CCOc1ccc(-c2cc(C(=O)N3CCN(c4cc(Cl)ccc4C)CC3)c3ccccc3n2)cc1,inactive: 49%
14,CNc1c(NC(=O)c2ccc(OC)c(OC)c2)c(=O)oc2ccccc12,inactive: 78%
15,CCC(=O)n1c2c(c3ccccc31)Nc1ccccc1N2,inactive: 105%
16,Cc1ccc(Nc2nc3nonc3nc2Nc2cccc(C(F)(F)F)c2)cc1Cl,active: 0%
17,CCOC(=O)C1=C(CN2CCN(c3ccc(OC)cc3)CC2)NC(=O)NC1c1ccc(OC)cc1 (centres undefined),inactive: 131%
18,CCN(CC)CCCNc1oc(/C=C/c2ccc(OC)c(OC)c2)nc1C#N,inactive: 88%
19,COc1ccc(NC(=O)Cn2cc(S(=O)(=O)N3CCN(c4ccccc4F)CC3)c3ccccc3c2=O)cc1Cl,inactive: 100%
20,CCOc1ccc2nc(SCC(=O)NCC3CCCO3)c(C#N)cc2c1 (centres undefined),inactive: 101%
21,Cc1cc2c(cc1S(=O)(=O)CCC(=O)N1CCC(C)CC1)OCC(=O)N2,inactive: 110%
22,CCc1ccc(C(=O)c2cn(CC(=O)Nc3ccc4c(c3)OCO4)c3ccc(CC)cc3c2=O)cc1,inactive: 96%
23,Cc1ccc(NC(=O)C(Cc2c[nH]c3ccccc23)NC(=O)OC(C)(C)C)c(C)c1 (centres undefined),inactive: 66%

row,SMILES,survival
1,Cc1cc(C)cc(NC(=O)NCCc2c(C)nn(C)c2C)c1,inactive: 57%
2,O=C1c2cccc3c(N4CCOCC4)ccc(c23)C(=O)N1c1ccccc1,inactive: 100%
3,CCOc1cc2sc(N3CCC(C(=O)Nc4ccc(CC)cc4)CC3)nc2cc1Br,inactive: 80%
4,CC(=O)N1CCCc2cc(S(=O)(=O)N3CCCC(C(=O)N4CCN(c5cccc(Cl)c5)CC4)C3)ccc21 (centres undefined),inactive: 68%
5,CCOc1ccc(CNC(=O)c2cccc(NC(=O)N3CCSc4ncccc43)c2)cc1OC,inactive: 69%
6,CCc1ccc(C(=O)c2cn(CC(=O)Nc3ccc(Cl)cc3)c3cc4c(cc3c2=O)OCO4)cc1,inactive: 134%
7,CC(=O)N1CCN(S(=O)(=O)c2ccc(C)cc2)C1C(C)C (centres undefined),inactive: 113%
8,CCC(Cn1nnc2ccccc2c1=O)NC(=O)Nc1cc(C)cc(C)c1 (centres undefined),inactive: 86%
9,CC(C)C(=O)Nc1nnc2n1CCS2,inactive: 75%
10,Cc1nc(N2CCCC2)c2c(C(=O)N3CCN(c4ccccc4)CC3)c(C)oc2n1,inactive: 71%
11,Cc1cc2c(n1-c1ccc(C(=O)NCCc3ccc(Cl)cc3)cc1)CCCC2,inactive: 146%
12,CC(C)c1nn2c(=O)cc(COC(=O)c3cccc(NC(=O)COc4ccc(F)cc4)c3)nc2s1,inactive: 72%
13,Cc1ccc(C)c(CSc2nnc3[nH]c(=O)cc(C)n23)c1,inactive: 76%
14,Cc1ccc(S(=O)(=O)n2nc(C)c(S(=O)(=O)N3CCCCCC3)c2C)cc1,inactive: 129%
15,COc1ccc(C)cc1NC(=O)c1noc2c1CSc1ccccc1-2,inactive: 86%
16,COc1ccc(C2C(C(=O)Nc3ccccc3)=C(C)Nc3c(C(=O)Nc4ccccc4)cnn32)cc1 (centres undefined),inactive: 134%
17,CS(=O)(=O)N1CCc2cc(C(=O)N3CCN(c4cccc(Cl)c4)CC3)ccc21,inactive: 91%
18,O=C(CN1CCC(N2CCCCC2)CC1)NC12CC3CC(CC(C3)C1)C2,inactive: 105%
19,COCCNC(=O)CCC(=O)NNc1nc2ccccc2c2nc(C)nn12,inactive: 87%
20,CCOc1ccccc1NC(=O)c1c(NC(=O)COc2ccc(Cl)cc2)sc2c1CCCCC2,inactive: 75%
21,Cc1ccc(C)c(CSc2nc(-c3ccccc3F)nc3c2Cc2c(CO)cnc(C)c2O3)c1,inactive: 114%
22,CCC1CC(/C(C)=N/NC(N)=O)OC1=O (centres undefined),inactive: 98%
23,Cc1ccc(C)c(N2CCN(C(=O)c3cn(CC(C)C)c(=O)c4c3c3ccccc3n4C)CC2)c1,active: 17%

row,SMILES,survival
1,COCCCNc1nc(NCc2ccccc2OC)c2cnn(C)c2n1,inactive: 136%
2,COc1ccc(Br)cc1C1C(C(=O)Nc2ccc(C)cc2C)=C(C)Nc2ncnn21 (centres undefined),inactive: 64%
3,Cc1ccc(NC(=O)C2(c3cccs3)CCOCC2)cc1Cl,inactive: 75%
4,COc1ccc(NC(=O)Cn2c(=O)n(-c3cc(C)cc(C)c3)c(=O)c3oc4ccccc4c32)cc1OC,inactive: 69%
5,O=C(NCCc1ccccc1)c1nn(-c2ccccc2F)nc1CO,inactive: 90%
6,Cc1ccc2c(CNCCc3ccccc3)c(C(=O)O)n(Cc3ccccc3C)c2c1,active: 1%
7,COc1cc(CN2CCN(C3CCCCCC3)CC2)cc(OC)c1OC,inactive: 104%
8,Cc1ccccc1N1CCN(S(=O)(=O)c2nnc(NC(=O)c3ccc(C(C)C)cc3)s2)CC1,inactive: 71%
9,COc1cc(NC(=O)c2cc(C3CC3)nc3c2c(C)nn3-c2ccccc2)cc(OC)c1,inactive: 81%
10,COC(=O)Cn1c(=O)c2cccn2c2ccc(F)cc21,inactive: 83%
11,Cc1cccc(N(C)c2nc3ccccc3c3nnc(C)n23)c1,inactive: 128%
12,CCOc1ccc(C(=O)Cn2c(=O)n3nc(CCn4nc(C)cc4C)nc3c3cc(OC)c(OC)cc32)cc1,inactive: 120%
13,CCS(=O)(=O)N1CCCC(C(=O)NCCOC)C1 (centres undefined),inactive: 68%
14,Cc1ccc(NC(=O)CSc2nnc(-c3ccc([N+](=O)[O-])cc3)o2)c(C)c1,inactive: 90%
15,Cc1ccc(C(=O)c2cn(CC(=O)Nc3ccc(C(C)C)cc3)c3nc(C)ccc3c2=O)cc1,inactive: 66%
16,CCCCCn1c(NCc2ccc(OC)cc2)nc2ccccc21,active: -2%
17,CCOc1ccc(-c2nc3c(c(SCC(=O)Nc4ccccc4C)n2)Cc2ccccc2O3)cc1,inactive: 126%
18,Cc1cc(C)n(-c2nc3ccccc3nc2Nc2ccc(N(C)C)cc2)n1,active: 2%
19,CCC(C(=O)NC1CCCC1)N(C(=O)Cn1nnc(-c2ccc(C)cc2)n1)c1ccc2c(c1)OCCO2 (centres undefined),inactive: 108%
20,COc1ccccc1OC(C)C(=O)Nc1cccc(-c2nc3ccccc3s2)c1 (centres undefined),inactive: 29%
21,COc1ccc(-n2nc(C(=O)Nc3ccccn3)c3c4ccccc4n(C)c3c2=O)cc1,inactive: 72%
22,CCOC(=O)c1ccc(NC(=O)c2cnc3c(-c4ccc(F)cc4)c(C)nn3c2C)cc1,inactive: 120%
23,Cc1cc(C)cc(NC(=O)Cn2c(-c3cncs3)nc3ccccc32)c1,inactive: 63%

row,SMILES,survival
1,Cc1ccccc1NC(=O)CC(NCc1cccnc1)C(=O)O (centres undefined),inactive: 89%
2,CCCCN(C(=O)c1cc(OC)c(OC)c(OC)c1)C1=CC2CCC(C1)N2C (centres undefined),inactive: 115%
3,CCCCN(C)C(=O)C1CCN(Cc2ccc(OCc3ccccc3)c(OC)c2)CC1,inactive: 108%
4,Cc1ccc(Cl)cc1NC(=O)C1CCN(c2nnc(C)c3c(C)n(-c4ccccc4)nc23)CC1,inactive: 71%
5,CCc1ccc(CNC(=O)c2cnc3sc(N4CCCC4)nn3c2=O)cc1,inactive: 71%
6,Cc1ccccc1CNC(=O)c1ccc2c(c1)c(C)c(C)n2C,inactive: 58%
7,CN(C)c1ccc(CNC(=O)c2ccc(Cn3c(SCc4ccccc4)nc4cccnc43)cc2)cc1,inactive: 85%
8,Cc1cc(C)c(Cn2c3ccccc3c3cnn(CC(=O)NCc4cccs4)c(=O)c32)c(C)c1,inactive: 76%
9,Cc1ccccc1Cn1nnc2c(=O)[nH]c(C3CCN(C(=O)c4ccc(F)cc4)CC3)nc21,inactive: 74%
10,CCCNC(=S)N1CCC(NC(=O)Nc2ccc(C)cc2)CC1,inactive: 102%
11,CCOc1ccc(CN2CCN(C(=O)c3ccco3)CC2)cc1,inactive: 103%
12,COc1ccc(-c2ccc3c(N)c(C(=O)c4ccc(OC)c(OC)c4)sc3n2)cc1,inactive: 86%
13,CCC(C)NC(=O)CCCN1C(=O)CCn2nc(-c3cccn3C)cc21 (centres undefined),inactive: 100%
14,CCc1ccc(-n2c(=O)c3c4c(sc3n(CC(=O)c3ccc(F)cc3)c2=O)CCC4)cc1,inactive: 85%
15,COc1ccc(CNC(=O)c2ccc(-c3nc(CSc4ccccc4)c(C)o3)cc2)cc1OC,inactive: 77%
16,CCCc1cc(=O)[nH]c(SCC(=O)N2CCN(c3ccccc3)CC2)n1,inactive: 108%
17,COc1ccc(CNC(=O)CSCc2nc(-c3ccccc3C)oc2C)cc1,inactive: 75%
18,CCc1cccc(NC(=O)COC(=O)c2cn(CC)c3nc(C)ccc3c2=O)c1,inactive: 92%
19,O=S1(=O)c2cccc3cccc(c23)N1Cc1ccccc1F,inactive: 105%
20,COc1ccccc1C(=O)Nc1ccccc1OCc1cc(=O)n2c(C)csc2n1,inactive: 81%

# Reference: PubChem BioAssay AID463173 (ICCB-Longwood Screening Facility, Harvard Medical School, 2010)
